Source: PubChem BioAssay AID488969 (Vanderbilt High Throughput Screening Facility, 2010)
Over roughly 110,000 compounds, “z-score” has its median near -0.1; the highest 2% begin near 2. This is one part of the list.

target: Metabotropic glutamate receptor 8 (Rattus norvegicus) (UniProt P70579); assay: rat mGluR8 modulators via GIRK flux, primary screen, cell-based, thallium flux, HTS (AID 488969); details: HEK293 rat mGluR8, GIRK (G protein-gated inwardly rectifying potassium channel) thallium flux, FluoZin2; at 10 µM; stronger effect = higher value; submaximal glutamate (EC20) added with thallium
Chain of UniProt P70579 (P70579 whole entry, looked up): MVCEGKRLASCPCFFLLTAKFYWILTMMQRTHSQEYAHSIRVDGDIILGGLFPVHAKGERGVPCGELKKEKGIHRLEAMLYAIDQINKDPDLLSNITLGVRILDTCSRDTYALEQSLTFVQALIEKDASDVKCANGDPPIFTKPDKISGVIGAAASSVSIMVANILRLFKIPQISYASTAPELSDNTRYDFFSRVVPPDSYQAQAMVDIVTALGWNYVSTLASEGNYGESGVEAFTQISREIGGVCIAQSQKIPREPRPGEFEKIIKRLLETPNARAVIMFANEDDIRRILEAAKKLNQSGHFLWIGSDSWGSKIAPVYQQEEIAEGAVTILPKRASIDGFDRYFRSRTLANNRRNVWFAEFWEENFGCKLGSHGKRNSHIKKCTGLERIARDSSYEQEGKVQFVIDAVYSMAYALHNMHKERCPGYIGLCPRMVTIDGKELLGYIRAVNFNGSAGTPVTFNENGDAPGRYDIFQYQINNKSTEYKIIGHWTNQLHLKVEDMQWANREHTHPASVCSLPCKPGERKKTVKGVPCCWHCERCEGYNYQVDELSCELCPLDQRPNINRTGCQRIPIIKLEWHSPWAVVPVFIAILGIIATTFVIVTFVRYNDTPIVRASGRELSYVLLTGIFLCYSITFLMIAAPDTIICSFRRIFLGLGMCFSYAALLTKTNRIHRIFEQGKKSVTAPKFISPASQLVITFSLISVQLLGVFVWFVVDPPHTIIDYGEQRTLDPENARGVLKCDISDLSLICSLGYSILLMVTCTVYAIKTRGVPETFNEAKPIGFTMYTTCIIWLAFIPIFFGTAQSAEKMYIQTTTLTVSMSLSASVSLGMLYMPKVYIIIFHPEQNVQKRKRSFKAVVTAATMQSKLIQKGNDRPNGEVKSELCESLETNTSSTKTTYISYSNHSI

Row | SMILES | z-score
1 | O=S(=O)(Nc1ncnc2sc3c(c12)CCC3)c1ccc2ccccc2c1 | -0.826
2 | O=C1C=C(c2ccccc2)CC(c2cccs2)C1n1cnc([N+](=O)[O-])c1 (configuration not stated) | -1.17
3 | CCOC(=O)c1ccc2c(c1)N(Cc1ccccc1C)C(=O)c1ccccc1S2=O (configuration not stated) | -0.502
4 | NS(=O)(=O)c1ccc(NCc2c(F)cccc2Cl)cc1 | 0.253
5 | Cc1c(NC(=O)c2ccc(Br)o2)cccc1C(=O)O | -0.024
6 | CC1(C)NC(=O)N(CC(O)COc2ccc(-c3ccccc3)cc2)C1=O (configuration not stated) | -0.0166
7 | COc1ccc(S(=O)(=O)N2CCCC2C(=O)Nc2nnc(-c3cccnc3)s2)cc1 (configuration not stated) | -0.289
8 | Cc1cnc(NC(=O)c2ccco2)s1 | 0.4
9 | CCOC(=O)CC(NS(=O)(=O)c1ccc(OC)c(OC)c1)c1cccc([N+](=O)[O-])c1 (configuration not stated) | -0.468
10 | CCOc1ccc(Cc2nn[nH]n2)cc1 | -0.0609
11 | Clc1ccc(Br)cc1-c1nc(-c2ccncc2)no1 | -0.152
12 | Cc1ccc(NC(=O)CC(NCCN2CCOCC2)C(=O)O)cc1Cl (configuration not stated) | -0.0164
13 | Cc1ccc(OCC(=O)NNC(=O)c2cc(C)[nH]n2)cc1 | -0.355
14 | COC(CN(C(=O)CCl)C(C(=O)NC1CCCC(C)C1C)c1ccc(C)cc1)OC (configuration not stated) | -0.383
15 | O=C(NC12CC3CC(CC(C3)C1)C2)N1CCN(c2nc(-c3ccccc3)cs2)CC1 | -0.367
16 | Nc1cc(-c2ccccc2)nn1S(=O)(=O)c1ccc(Br)cc1 | 0.0243
17 | CCOc1ccc2oc(-c3ccccc3)c(C(=O)N(C)C)c2c1 | -0.33
18 | COc1ccccc1NS(=O)(=O)c1cc(NC(=O)/C=C/c2cccs2)ccc1N1CCOCC1 | -0.133
19 | CC(=O)c1cc(F)c(N2CCN(C(=O)Cc3ccccc3)CC2)cc1C | 0.359
20 | CN(C)CCCN1C(=O)C(=O)/C(=C(/O)c2ccncc2)C1c1cccc(Br)c1 (configuration not stated) | -0.318
21 | CN(CC1COc2ccccc2O1)C(=S)Nc1ccccc1F (configuration not stated) | -0.243
22 | CC1(C)NC(=O)N(CC(=O)Nc2nc(-c3ccc(F)cc3)cs2)C1=O | -0.157

Row | SMILES | z-score
23 | CC(C)(C)C(=O)N(Cc1nc2ccccc2c(=O)[nH]1)Cc1cccs1 | 0.197
24 | Cc1csc(C2=C(O)CN(CCc3ccccc3)C2=N)n1 | 0.578
25 | NC(=O)c1ccccc1OCC(=O)NS(=O)(=O)c1ccccc1 | -0.137
26 | Cc1ccc(-n2c(-c3ccco3)nc3c(cnn3-c3ccccc3C)c2=O)cc1 | -0.218
27 | COc1ccc2nc(SCC(N)=O)[nH]c2c1 | 0.59
28 | Cc1ccc2nc(NCCO)nc(-c3ccccc3)c2c1 | 0.968
29 | O=C(CCCN1C(=O)CCC1=O)Nc1ccc(Cl)c(C(F)(F)F)c1 | -0.0185
30 | O=C1CC(C(=O)Nc2ccccc2)N=C(N2CCCCC2)N1 (configuration not stated) | 0.00412
31 | COc1cccc(CNc2ccc(S(N)(=O)=O)cc2)c1OCc1ccccc1F | -0.468
32 | CC1(C)CC(=O)C2=C(C1)OC(c1ccncc1)C(C#N)=C2N (configuration not stated) | 0.377
33 | Cn1c2ccccc2c(=O)c2c(=O)n(C3CCCCC3)c(-c3cccs3)nc21 | -0.394
34 | Nc1n[nH]c(-c2ccccc2)c1-c1ccccc1 | -0.118
35 | COC1(OC)N=C(NC(=O)Nc2ccccc2)C2(C#N)C(c3ccccc3)C12C#N (configuration not stated) | -0.0401
36 | O=C(c1cc2ccccn2n1)N1CCN(c2cccc(C(F)(F)F)c2)CC1 | 0.101
37 | CCC(=O)Nc1ccc(NC(=S)Nc2ccccc2)cc1 | -0.362
38 | N=c1c2c3c(sc2ncn1Cc1ccccc1)CCCC3 | 0.187
39 | Cc1cc(=O)oc2cc(OCC3CC(c4ccc(Br)cc4)=NO3)ccc12 (configuration not stated) | -0.809
40 | Cn1c(=O)oc2cc(S(=O)(=O)N3CCN(C(=O)c4ccco4)CC3)ccc21 | 0.764
41 | Nc1cc(-c2ccc(Br)cc2)nn1S(=O)(=O)c1ccccc1 | 0.484
42 | Cc1nc2ccc(S(=O)(=O)N(C)CC(=O)N3CCc4ccccc43)cc2s1 | -0.14
43 | CCOC(=O)c1c(CN2CCOCC2)n(-c2ccccc2)c2cc(Br)c(O)cc12 | -0.822
44 | COCC(=O)N(Cc1ccco1)c1nnc(C2CCOC2)s1 (configuration not stated) | 0.036

Row | SMILES | z-score
45 | CCC(C)[C@H](NC(=O)Nc1cccc(Cl)c1)C(=O)O (some centres not stated) | -0.129
46 | CN(C)C(=O)CN(C)S(=O)(=O)c1ccc(Cl)cc1 | 0.0253
47 | CC(C)(C)NC(=O)COc1ccc(CNCc2cccs2)cc1 | -0.216
48 | COc1ccccc1Oc1coc2c(CN(C)C)c(O)ccc2c1=O | 0.181
49 | COCCn1c(=O)[nH]c2cc(C(=O)NCCc3ccc(OC)c(OC)c3)ccc2c1=O | 0.373
50 | Cc1ccccc1-n1c(=O)cc(N2CCN(C(=O)c3ccco3)CC2)[nH]c1=O | -0.201
51 | Cc1cc(C(=O)CSc2nnc(-c3ccccc3F)o2)c(C)n1Cc1cccs1 | 0.122
52 | CCCc1nnc(SCC(=O)N2CCCCC2C)n1CCCOC (configuration not stated) | -0.163
53 | O=S(=O)(NC1CCCCCC1)c1ccc(Br)s1 | -0.403
54 | CC1=NN(c2ccc(C)cc2C)C(=O)C1C(c1ccccc1)C1C(=O)N(c2ccc(C)cc2C)N=C1C (configuration not stated) | -0.874
55 | CCN(CC)S(=O)(=O)c1cccc(-c2nnc(C(=O)c3ccc(C(F)(F)F)cc3)o2)c1 | -0.091
56 | CC(NC(=O)c1cc2c(=O)n(C)c3ccccc3c2n1C)c1ccc2c(c1)OCCO2 (configuration not stated) | -0.437
57 | Cn1c(=O)[nH]c(=O)c2c1nc(Br)n2CCSc1ncccn1 | 0.549
58 | CCOC(=O)c1ccccc1NC(=O)COc1cc(=O)n(CC)c2ccccc12 | -0.743
59 | Cc1cc(C(=O)CSc2n[nH]c(N)n2)c(C)n1-c1ccc(F)cc1 | -0.628
60 | O=C(c1nn(Cc2ccccc2)c(=O)c2ccccc12)N1CCN(C/C=C/c2ccccc2)CC1 | -0.529
61 | CCCC1=Nc2cc(C(=O)NCCCOCC)ccc2Sc2ccccc21 | -0.599
62 | CCOC(=O)c1c(N)n(CC(C)NC(=O)C2CC2)c2nc3ccccc3nc12 (configuration not stated) | 0.154
63 | C=CCc1ccc(OCCCCCN2CCOCC2)c(OC)c1 | 0.566
64 | C=CCNc1nc(SCC=C)nc2ccsc12 | -0.905
65 | CCC(CC)c1nnc(NC(=O)CN2C(=O)C3C4C=CC(C4)C3C2=O)s1 (configuration not stated) | 0.0107
66 | Cc1ccc(-c2csc(NC(=O)c3ccc4c(=O)n5c(nc4c3)CCCCC5)n2)cc1 | -0.351

Row | SMILES | z-score
67 | CC(CCc1ccccc1)NC(=O)COc1ccc(S(=O)(=O)N2CCOCC2)cc1[N+](=O)[O-] (configuration not stated) | -0.074
68 | COc1ccc(Nc2ccc(S(=O)(=O)N3CCCCC3)cc2[N+](=O)[O-])cc1OC | 2.43
69 | Cc1cccc(C)c1N1C(=O)C2ON(c3ccccc3)C(c3ccncc3)C2C1=O (configuration not stated) | -0.179
70 | O=C(/C=C/c1cccc([N+](=O)[O-])c1)N1CCN(c2ccc(F)cc2)CC1 | -0.449
71 | O=C(Nc1ccccc1)C1Cc2ccccc2CN1C(=O)c1ccco1 (configuration not stated) | -0.0831
72 | CCOC(=O)C1=C(C)Nc2sc(C(=O)c3ccc(C)cc3)c(N)c2C1c1ccc(C(=O)OC)cc1 (configuration not stated) | -0.284
73 | CC1CCCC(NC(=O)COC(=O)CSc2ccc3ccccc3c2)C1C (configuration not stated) | -0.0113
74 | Cc1cc(C(=O)COC(=O)C2=NNC(=O)CC2)c(C)n1-c1cccc(C(F)(F)F)c1 | -0.144
75 | Cc1nn(CCC(=O)NNC(=S)NCC(C)C)c(C)c1Br | 1.47
76 | CC(=O)c1cc2c(cc1NC(=O)CN1CCOCC1)OCO2 | 0.0756
77 | Cc1ccc(-c2nc3ccccc3[nH]2)cc1NC(=O)c1sc2ccccc2c1Cl | -0.199
78 | Cc1c(OCc2ccccc2)c(=O)ccn1Cc1ccccc1 | -0.292
79 | COc1ccc(NC(=O)CN(Cc2ccccc2)S(C)(=O)=O)cc1 | -0.474
80 | O=C(CC12CC3CC(C1)CC(CC(=O)NC1=NCCS1)(C3)C2)NC1=NCCS1 | -0.0995
81 | CC(NC(=O)c1nn(C)c(=O)c2ccccc12)c1ccccc1 (configuration not stated) | -0.0131
82 | O=C(COc1ccc2ccccc2c1Br)N1CCN(c2ccccn2)CC1 | -0.134
83 | COc1ccccc1NCCC(=O)OCC(=O)NC1CC1 | -0.43
84 | Cc1cc(C(=O)Nc2nnc(-c3ccccc3)s2)no1 | 0.114
85 | Cn1c(NCc2ccco2)nc2c1c(=O)n(Cc1ccc(Cl)c(Cl)c1)c(=O)n2C | 0.384
86 | Cc1ccc(Oc2ccc(OCC(=O)NC(C)C(=O)O)cc2)cc1 (configuration not stated) | -0.304
87 | CSCCC(C(=O)Nc1ccc2c(c1)OCO2)N1C(=O)c2ccccc2C1=O (configuration not stated) | 0.0184
88 | O=C(NC12CC3CC(CC(C3)C1)C2)c1ccccc1O | 0.112

Row | SMILES | z-score
89 | CCOC(=O)c1c(NC(=O)c2ccccc2N(C)S(=O)(=O)c2ccccc2)sc2c1CCCC2 | -0.168
90 | COc1ccc(-n2nnnc2SCC(=O)Nc2nnc(C)s2)cc1 | 0.0962
91 | Cc1ccc(S(=O)(=O)NCCc2nnc3ccc(SCC(=O)Nc4nc5ccccc5s4)nn23)cc1 | 0.128
92 | CCN(Cc1ccccc1)S(=O)(=O)c1cc(C(=O)NCC2CCCCC2)ccc1OC | 0.00418
93 | Cc1noc(C)c1CSc1nc2ccccc2c(=O)n1-c1ccc(F)cc1F | -2.63
94 | CCCn1c(SCC(=O)Nc2cc(S(=O)(=O)N3CCOCC3)ccc2OC)n[nH]c1=O | -1.01
95 | O=C(NCc1ccco1)c1cccc(NC(=O)c2ccco2)c1 | -0.396
96 | CC(C)Oc1ccc(-c2nn(-c3ccccc3)cc2/C=c2\sc3ncnn3c2=O)cc1 | 0.267
97 | Cc1occc1C(=O)NNC(=O)Cc1ccccc1 | -0.102
98 | Cc1cc(=O)n2[nH]c(-c3ccc(C(C)(C)C)cc3)cc2n1 | 0.0684
99 | O=C(CSc1ccc2nnc(-c3ccccc3)n2n1)N1CCCc2ccccc21 | -1.37
100 | CC(C)(C)NS(=O)(=O)c1ccc(CCC(=O)O)cc1 | 0.132
101 | Cn1cnc(S(=O)(=O)Nc2ccc(C(F)(F)F)cc2)c1 | -0.0366
102 | CCN1CCN(CCNC(=O)CS(=O)(=O)Cc2nc(-c3ccc(C)cc3)oc2C)CC1 | -0.313
103 | O=S(=O)(c1ccc(N2CCOCC2)cc1)N1CCOCC1 | 0.51
104 | CCOc1nc2ccccc2nc1C | 0.275
105 | CC(C)(C)c1ccc(OCC(=O)Nc2ccc(-c3nc4cccnc4o3)cc2)cc1 | 0.734
106 | CC(=O)c1cccc(N(CC(=O)NCC2CCCO2)C(=O)CCC(=O)Nc2cc(C)on2)c1 (configuration not stated) | -0.0378
107 | CCOC(=O)N1CCN(C2OC(=O)c3ccccc32)CC1 (configuration not stated) | -0.364
